# Experimental data as given in the RNAGym collection of RNA variant scans (doi:10.7554/elife.90254).
# Read counts are not given, so values of variants with three or more changes are uncertain.
# B1: LINE1-mini (parent)
# chain: GGCAGAGCUCAACACAGCGUGGCAAAGUGGCUGUGGCUAGACUGCC
# Variants of: B1
# Experiment: self-cleavage, relative activity (ratio to wild type); higher = more cleavage; in vitro, sequencing; the parent is a self-cleaving ribozyme
row,Variant,self-cleavage
1,C31G G35C A41C U43G,0.03
2,G35U A39C A41C,0.11
3,C31A G40C G44U,0.03
4,G33U A41G C46U,0.02
5,C31A A39U A41C,0.08
6,U32G C37A G40C,0.03
7,G30A G33A A39U,0.04
8,G30A G35C G36A C42A,0.08
9,G33C A41C C45U,0.01
10,G33U G36U C37A U38A,0.06
11,G30A C31A C45G,0.38
12,U34A C37U C42U,0.06
13,G30U U32C C37U,0.03
14,U34A G35A A39C,0.01
15,C31A G33A U38A,0.04
16,C31A G33A G35C U38A U43A C46U,0.08
17,G30C C31G U32G C42A,0.02
18,G33A U38G C42G,0.15
19,G33C G36C C42G,0.02
20,C31A G33C C45U,0.06
21,G30A C31U U38C,0.08
22,U34A G40U A41C,0.05
23,G30U U34C C46G,0.02
24,G33A G36A A41U,0.21

row,Variant,self-cleavage
1,U34G C42A C45G,0.03
2,G30U G35C C45A,0.04
3,G30U G35U G40U,0.03
4,U32A C37A A41G,0
5,G33U U34A G35U U43C,0.1
6,G30U A41G C45G,0.01
7,G29U G40A A41G G44A,0.16
8,G30U C31A U32G,0.01
9,U34A G36U U38G C42U,0
10,C31U G36U A41U,0.02
11,G30U C31U U32G G40C A41U C46A,0
12,G29U G36C G40A,0.11
13,G30A A41C C42A,0.01
14,U32C G36C G44U,0
15,G33C G44U C45G,0.01
16,U32A G40A C46A,0
17,G30U U38G C46A,0.01
18,G35C U38A C45G,0.02
19,G33U G40U G44U,0.13
20,C31A G35C C42U,0.08
21,G33C G40A C46G,0.02
22,C31A G36A U38A A39G,0.05
23,C31A G35C C37G,0.05
24,G30C G40U U43G C46A,0.05

row,Variant,self-cleavage
1,G35A G36C G40A A41C C45U,0.1
2,G29U U34G G35A U43C,0.04
3,G29U U38G G40A C46A,0.01
4,G30C C37G G44U C46U,0.04
5,U32G G36U U38C,0.01
6,G33U C42U C45A,0.02
7,G33U C42U C45G,0.03
8,C31G C37U U38G A41C,0.01
9,G33C U38G G40U,0.03
10,U34A G40U C45G,0.01
11,U34C C37A G40C,0.14
12,U34C G35U C37A,0.09
13,C31A C37G C46U,0.02
14,G30U A39C A41C,0.03
15,C31G C42U C45A,0.12
16,G30C C37U C46U,0.08
17,G33U A39C A41U,0
18,U34G A41G G44C,0.01
19,U34C G40C C42A,0.09
20,C31A U43G G44C,0.04
21,C31U G33C U38A,0.08
22,G30C U32C G36C U38G,0.01
23,U34C G35C U38A,0
24,G30C U32C A41G,0.07

row,Variant,self-cleavage
1,C31G C45A C46G,0.03
2,U32C A39G G40C,0.11
3,G30A C42A U43A,0.04
4,U32A A41U G44U C45G,0.63
5,C31A G44U C45G,0.03
6,U32G G33C G36C,0.09
7,C31U A41C C46A,0.04
8,U32C G35A C37U,0.03
9,C31A G40A A41C,0.05
10,G30C C31U C37U,0.03
11,G30A G36C G40U,0.05
12,G30A C31G A39C,0.03
13,G30A U32G C37A,0.09
14,U34G G36C A39C,0.06
15,G30U G35C A41U,0.04
16,C31A U38G G44A,0.02
17,G30U C31A C42G,0.04
18,U32A C42A C45G,0.04
19,G30A U32C G40A C42U,0.03
20,G35A A41U C46A,0.05
21,G33U U34C G36C,0.02
22,G33U C37A G40C,0.08
23,G30A G35A A39G,0.03
24,G33A G40C U43C,0.03

row,Variant,self-cleavage
1,C31A G40U U43A,0.2
2,U34C A41U G44A,0.2
3,C31G G44C C46U,0.05
4,U32C A39C G40A,0.1
5,G30U A39U U43G C46G,1.4
6,U34G G35A G36U,0.16
7,C31G U38C A41C,0.03
8,G33U G35U C46U,0.01
9,G33U G35U U43G,0
10,C31A G35C G40A,0.01
11,U34G G36C G40U,0.05
12,G35C U38C A39C,0.08
13,G30U C37G C42A,0.11
14,U34C G36U C45A,0.01
15,G35U A39G G40A,0.03
16,G30U U34C G36C G44C C46U,0.05
17,C31U A39G G44C,0.01
18,G33U C37A A41G,0.08
19,G30U C31G C37A C45A,0.14
20,G30A G33C A39G,0.04
21,U32G G36C A39U C42G,0.03
22,G30A G33C G44C,0.01
23,G33U U34C A41U,0.02
24,C31G A39C A41C C42U,0.04

row,Variant,self-cleavage
1,U34G A39G G44C,0.03
2,G29U U38A U43G,0
3,G30C C31A C42A,0.03
4,U32A C42G C46U,0
5,U32G U34A G40U,0.04
6,C31U U32C C37A,0.08
7,G33A C42G C46A,0
8,G33C G35A C37G,0.07
9,G35A G36A C42U,0.17
10,G30U C31U A41G,0.04
11,G30U A41U C45U C46A,0.39
12,U32C G33U G44A,0.1
13,C31U G40C C45A,0.03
14,G30U U38A C46U,0.98
15,C31U G35A A41U G44A,0
16,G33U C45A C46A,0.05
17,G30C C37U U38A,0
18,G30C C42A C45A,0.02
19,U34C G40A C42G,0.1
20,G30C U38G C42U,0.06
21,U32C A39G C45U C46G,0.04
22,C31G U34C G44A,0.04
23,C31U A41C C42G,0.04
24,G33C U34A A39U,0.03

row,Variant,self-cleavage
1,U32A U43G G44C C46U,0.02
2,U34A G36A A39C C42A,0.03
3,C31G A39U C42U,0.08
4,G30U U32A U38A,0.05
5,G33A U34G A39U,0.03
6,C31A G33C C37U C46A,0.11
7,C31G U34A C45U,0.02
8,U32C G35A U38C C42G,0.07
9,G30U A39C C45U,0.06
10,G33A G35C C45G,0.02
11,U32C A41C C42A,0.05
12,U32G G40C C46U,0.03
13,G35A U43A C46U,0.03
14,G33A G36C A39G,0.08
15,U32C G40C G44U,0.06
16,U34A G36U C37A,0.04
17,U32G A41C C42G,0.03
18,G33A G35A C37A G40A,0.02
19,U34C G44A C46A,0.01
20,G33C U38A C45A,0.01
21,C31A U32C G40C C45A,0.02
22,G30C U32C C46U,0.05
23,U32C G35C C37A,0.03
